From paper PMC4336329 (PLoS ONE, 2015) come the findings set out here.

Hit rate of the full screen: of about 310,000 compounds, about 2,200 (0.71%) showed an effect of 50% or more. The effect is printed as a negative number. This is one part of the list.

human ether-à-go-go-related gene (hERG) potassium channel, sequence (Q12809 whole entry, looked up): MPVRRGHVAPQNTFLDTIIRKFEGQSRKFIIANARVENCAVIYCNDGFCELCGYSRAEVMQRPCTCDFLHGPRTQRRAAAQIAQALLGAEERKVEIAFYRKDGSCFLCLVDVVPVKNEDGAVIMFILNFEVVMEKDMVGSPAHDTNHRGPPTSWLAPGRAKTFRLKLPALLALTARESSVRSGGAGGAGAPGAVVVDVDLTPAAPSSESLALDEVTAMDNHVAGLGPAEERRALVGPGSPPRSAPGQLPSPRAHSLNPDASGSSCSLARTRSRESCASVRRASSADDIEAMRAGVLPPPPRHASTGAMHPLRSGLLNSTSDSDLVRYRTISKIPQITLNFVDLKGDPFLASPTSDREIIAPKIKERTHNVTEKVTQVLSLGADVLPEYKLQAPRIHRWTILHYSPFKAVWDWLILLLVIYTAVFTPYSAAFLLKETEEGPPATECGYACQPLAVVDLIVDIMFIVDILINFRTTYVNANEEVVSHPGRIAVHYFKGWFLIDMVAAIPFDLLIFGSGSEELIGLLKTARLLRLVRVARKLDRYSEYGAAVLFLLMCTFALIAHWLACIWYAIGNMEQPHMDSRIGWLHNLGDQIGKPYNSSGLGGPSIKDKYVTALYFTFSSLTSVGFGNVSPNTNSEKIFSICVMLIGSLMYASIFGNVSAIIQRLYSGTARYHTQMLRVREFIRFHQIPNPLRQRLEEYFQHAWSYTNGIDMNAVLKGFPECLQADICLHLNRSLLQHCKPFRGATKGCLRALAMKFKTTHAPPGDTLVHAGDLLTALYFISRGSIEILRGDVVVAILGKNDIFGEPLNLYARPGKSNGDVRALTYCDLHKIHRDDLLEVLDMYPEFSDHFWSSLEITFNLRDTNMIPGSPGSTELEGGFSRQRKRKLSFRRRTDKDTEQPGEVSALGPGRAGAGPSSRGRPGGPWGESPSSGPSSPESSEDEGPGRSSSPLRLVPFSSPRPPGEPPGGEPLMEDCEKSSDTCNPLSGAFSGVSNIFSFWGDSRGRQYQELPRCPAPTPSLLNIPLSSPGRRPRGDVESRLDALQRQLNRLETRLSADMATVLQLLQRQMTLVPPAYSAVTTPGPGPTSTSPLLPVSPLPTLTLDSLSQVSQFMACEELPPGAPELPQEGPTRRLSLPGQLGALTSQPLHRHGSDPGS

This assay has as its target human ether-à-go-go-related gene (hERG) potassium channel (human, UniProt Q12809). In words: primary screen, population patch clamp on CHO cells stably expressing hERG.
For the compound `O=C(COc1ccccc1Br)Nc1ccc(S(=O)(=O)N2CCCC2)cc1`, the “hERG current change (%, negative = inhibition) at 1uM” value is reported as 2.33%. The result for `CCOC(=O)CNC(=O)CSc1nc(Cc2ccccc2)nc2ccccc12` reads 3.02%. The result for `CCOC(=O)c1ccc(NS(=O)(=O)CC)cc1` reads 18.7%.

On to `Cc1ccc(CCNC(=O)C2CC(c3ccccc3[N+](=O)[O-])=NO2)cc1` (centres unmarked), for which the “hERG current change (%, negative = inhibition) at 1uM” value is recorded as 14.4%. With `Cl.O=c1c(-c2ccccc2)coc2c(CN3CCCCC3)c(O)ccc12`, the “hERG current change (%, negative = inhibition) at 1uM” value was determined as 14.4%. The result for `CC1CCN(c2nc3c(c(=O)n(C)c(=O)n3C)n2Cc2ccccc2)CC1` reads 3.95%. The result for `CCc1cc(C(=O)Nc2ccc(S(=O)(=O)NC3=NCCCCC3)cc2)sc1C` reads -3.62%; that for `Nc1nc(SCc2ccc([N+](=O)[O-])cc2)c2ncn(C3OC(CO)C(O)C3O)c2n1` (centres unmarked), 7.76%; that for `Cc1c(Cl)cnc(NC(=O)COC(=O)c2ccncc2)c1Cl`, 12.5%. As for `O=C(Cn1cnc2ccccc21)N/N=C/c1ccc([N+](=O)[O-])cc1`, the figure is 10.9%; as for `O=C(CCN1CCC(c2cccs2)=N1)c1cccs1`, 8.07%. With `CCOC(=O)C1=C(C)NC(=S)N(C(C)=O)C1c1ccc(Cl)cc1` (centres unmarked), the “hERG current change (%, negative = inhibition) at 1uM” value amounted to 9.38%. The result for `COc1ccc(S(=O)(=O)N2CCC(O)(c3cccnc3)CC2)cc1OC` reads 7.1%. As for `O=C(Nc1cccc(O)c1)c1ccccc1[N+](=O)[O-]`, the figure is 5.34%; as for `COc1ccccc1C(=O)NC(=S)Nc1ccc(N2CCOCC2)c(Cl)c1`, 11.3%; as for `O=C(Nc1ccc(F)c(Cl)c1)c1ccc2c(c1)OCO2`, 13.1%. Regarding `O=C(Nc1ccccc1C(F)(F)F)C1CCN(C(=O)c2cccs2)CC1`, the “hERG current change (%, negative = inhibition) at 1uM” value was determined as 12.5%. For the compound `Cc1cccc(N(CC(N)=O)C2SC(=O)N(c3ccccc3)C2=O)c1` (centres unmarked), the “hERG current change (%, negative = inhibition) at 1uM” value is 14.6%.

Take `CCNC(=O)C(=O)N/N=C/c1cc([N+](=O)[O-])ccc1O`: the “hERG current change (%, negative = inhibition) at 1uM” value was 2.06%. As for `COc1cccc(CC2(CO)CCCN(Cc3sc(N4CCCC4)nc3Cl)C2)c1` (centres unmarked), the “hERG current change (%, negative = inhibition) at 1uM” value came out at 1.49%. For `Cc1ccc2sc(C)[n+](CCC(C)S(=O)(=O)[O-])c2c1` (centres unmarked), the “hERG current change (%, negative = inhibition) at 1uM” value was found to be 4.78%. As to `COc1ccc(NC(=O)Nc2nnc(-c3cccs3)s2)cc1`, the “hERG current change (%, negative = inhibition) at 1uM” value was 5.07%. The result for `O=C(Nc1ccc(COc2ccccc2)cc1)Oc1ccccc1N1CCOCC1` reads 15.5%; that for `CCN1C(c2ccccc2)C(C)C(=O)C(C)C1c1ccccc1` (centres unmarked), 6.74%; that for `CCC(C(=O)Nc1ccc2c(c1)OCCO2)n1nnc2ccccc2c1=O` (centres unmarked), 12.9%. The result for `Cn1c(CNC(=O)CNC(=O)c2ccccc2)cc(=O)n(C)c1=O` reads 8.3%; that for `CN1C(=O)C(=Cc2ccc(-c3cccc(Cl)c3)o2)C(=O)N(C)C1=O`, 4.47%. For the compound `COc1ccc(C(=O)OC(C)C(=O)NC2CCCc3ccccc32)cc1OC` (centres unmarked), the “hERG current change (%, negative = inhibition) at 1uM” value came to 9.5%. With `Cc1cccc(NC(=O)NCc2cccnc2)c1C`, the “hERG current change (%, negative = inhibition) at 1uM” value is -15.7%. In the case of `CC(C)C(C(=O)NC1CCCCC1)N(CC1CCCO1)C(=O)CNS(=O)(=O)c1ccc(F)cc1` (centres unmarked), the “hERG current change (%, negative = inhibition) at 1uM” value came to 0.505%. As for `Cc1ccccc1N1C(=O)CN(Cc2sccc2C)C1=S`, the figure is 7.66%; as for `CCOC(=O)c1cnc(-c2ccc(C(F)(F)F)cn2)[nH]c1=O`, 11.5%; as for `COc1ccc(N(C(=O)c2ccccc2OC)C2C=CS(=O)(=O)C2)c(OC)c1` (centres unmarked), 14.4%.

Turning to `O=c1[nH]cnc(O)c1C(c1ccc(F)cc1)c1c(O)nc[nH]c1=O`, the “hERG current change (%, negative = inhibition) at 1uM” value is 17.9%. With `O=C1CN(C(=O)COc2ccc(F)cc2Br)c2ccccc2N1`, the “hERG current change (%, negative = inhibition) at 1uM” value is on record as 2.8%. As for `COc1ccc(-c2sc3ccc(OC)cc3c2C#CCCO)cc1`, the figure is 12.8%; as for `CN(C)S(=O)(=O)N1CCN(S(=O)(=O)c2ccc3ccccc3c2)CC1`, 21%. Take `CC(C)c1ccc(NC2CCCN(C(=O)c3ccncc3)C2)cc1` (centres unmarked): the “hERG current change (%, negative = inhibition) at 1uM” value stood at 10.7%.

As for `Cc1cccc(C(=O)OCC(=O)Nc2c(C)n(C)n(-c3ccccc3)c2=O)c1`, the “hERG current change (%, negative = inhibition) at 1uM” value was 4.09%.

Consider `CCc1nc2ccc(C(=O)N3CCN(c4cccc(C(F)(F)F)c4)CC3)cc2nc1CC`, for which the “hERG current change (%, negative = inhibition) at 1uM” value is reported as -16.7%. The result for `O=C1C(C=NCCCN2CCOCC2)=C(O)c2ccccc21` reads 11%.

With `COc1ccc(C(=O)NCC(O)COc2ccc(C(C)(C)C)cc2)cc1[N+](=O)[O-]` (centres unmarked), the “hERG current change (%, negative = inhibition) at 1uM” value was found to be 10.8%. As for `Cc1c(C(=O)Oc2cc(N)n(S(C)(=O)=O)n2)cccc1[N+](=O)[O-]`, the figure is 7.66%; as for `CCc1cc2ccc(OC)cc2nc1SCC(=O)NNC(C)=O`, -1.32%.
